According to the RNAGym collection of RNA variant scans (doi:10.1073/pnas.2313332121):
Variants at the floor of the assay are shown more often than the library holds them.

B1: TPR 5TU (parent)
chain: GGAUCUUCUCGAUCUAACAAAAAAGACAAAUCUGCCACAAAGCUUGAGAGCAUCUUCGGAUGCAGAGGCGGCAGCCUUCGGUGGCGCGAUAGCGCCAACGUUCUCAACUAUGACACGCAAAACGCGUGCUCCGUUGAAUGGAGUUUAUCAUG

Variants of: B1
Experiment: polymerase ribozyme fitness, log enrichment relative to wild type (log ratio); higher = more active; in vitro selection for triplet polymerase activity
In short: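 Both subunits of a heterodimeric triplet polymerase ribozyme were given their own mutant library, built by PCR and transcribed. Each library was annealed with a biotinylated primer, the partner subunit and triplets, incubated frozen at −7 °C, and its extended constructs gel-excised, captured on streptavidin beads and amplified by RT-PCR, all in one round done in triplicate. Fitness is the logarithm of genotype enrichment relative to wild-type enrichment, with replicates averaged by inverse-variance weighting. That logarithm is base 2, and Illumina-sequenced genotypes needed ≥10 input reads and ≥1 read per output.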

Polymerase ribozyme fitness (log ratio), -3.22:
A40C C93A G143A

Polymerase ribozyme fitness (log ratio), -3.46:
A40C U134G A142G U145A

Polymerase ribozyme fitness (log ratio), -0.865:
A39U G126C

Polymerase ribozyme fitness (log ratio), -1.42:
A40C A137G

Polymerase ribozyme fitness (log ratio), -1.29:
A40C C85G A106G G117C

Polymerase ribozyme fitness (log ratio), ≤ -4.2:
A40C U45A A66U G83A G88U A97C A122U A138U
A40C C85G C108G
A39U A66C C72U G86U A89U C103A C123U
A40C C43A C95U
A40C A60U G70A C103A A107G
A40C A52U U56A G58C G84A C96G C116G A147U
A40C A52G G80U C114G G128U G133U
A40C G42C A52G C54U C96G U109G
A40G A110C
A40C U45A C54U
A40C G42C U78G A150G
A39U C43U C96A C103A C105A A147C
A39U A52G C76A G92C
A39U C54U C93U A107U C108U U109A G140C
A40C G62A A73C U78C A89C A98U U109G A121U G133U G136U
A39U U78C G94U U102G
A40C C54A G83A G100C
A40C C76A C87U C116G G152U
A40C A41C C43U U53G C95U
A39U U53A C85A
A39U A52G U78A G86A A91U
A39U A49G C76G A91U C132U
A40C G42C U44A A49G U53G A64G G65U C79U C85A
A39U C54G G86A G88C G140A G141C
A40C G42A C54G C95G C96U A110G
A39U G83C A106C C116A C131A
A39U A52U U61A C87A
A39U G42C C76U U102A A120U A122G G140A
A39U A49C G62A C103G
A39U G86U G128A U130G A138C
A40C C87A A89G
A40C C51A C57U U77C C93U C131U G143U
A40C U61A C76A
A39U A64C G65C A66G G112C C123A
A39U G46C G74C
A39U C43U C57G G58A G80U G94U U146G
A40C U45A G84C G86C C87U A122G
A39U C51U U77C G94U A115C
A40C A49C G81U A98G
A39U G59A U78A C93U A97U C108G U148A
A39G U56A C75A G84C A89G C118G U130A
A40C C51U C93G A113C A115U
A40G A52U G68A G74A C79A C125U U135A G136C
A39U C57A A60C A73U A97U C123U A142U
A40C G46A U55A G68A G86A C87U A107U G141C
A40C A41G C108U C114U U139G
A40C G46U U148G
A39U G62A A91U C93A A138C C149A
A40C G59A U77G C93G A137C U148G
A40C C85A U146G G152C
A40C C87A A120C G133U
A39U G117C G143U C149G
A40C C72U C85G G136U C149A
A39U A41C C85A A89C U90A G112U
A40C U61A A91G A97U G141U
A39U A119G U151G
A39U U53A U55A U56A C93U A106U U135C U148A
A40C U61G C87G C93A G143C
A39U G58A G88A U90G A106C
A39U A66U G68U G94A
A39U U55A C57A U90G G92A
A39U A49C
A40C A49C C96U C99U C114U C123U
A40G A52C U53A U55A G58A C125G
A40C C69G C75U A98U U135G U151G
A40C U44A G50U C54G G81C C149A
A39U C54U U127G A150U
A39U A47C U78C C93U C95G
A40C A49C C57A
A39U A49C A60U G71A C76G G81A C93G C103G C108U
A39U A47G G62A A91U C123A
A40C U90G A91U A110U A142G
A40C C96U G141A U148C
A39G U148A U151A
A39U A41U G81U C93A U146G
A40C A41C A107U C108G G117C
A40C G92C A120G A121C G152A
A40G A41C C57A G59C G88C U101G A115U U135C G152C
A40C U56G G71A C87G A106C U130G
A40G C43U C125G G133U
A40C C85G G92A U130A
A40C C75A A89C G92U
A39U G58U A60C C76U C87G
A40C U56G G74A G88U
A39U C87G
A40G A52G G65U G80A G92A C95A A142C
A40C G50C U56A A91C
A40C U78G G84U G88U G141U
A39U A49C A60C G141C
A39U G92C C108G G126A
A39U A52G C79G G84C C108U
A39U A91U
A40C A41U G70A U151A
A39U A49G G50U A52G A73U C76U G84U C116U A122U U127G
A39G U56A U90A
A39U C93G C105U U135A A142C
A40C G71C G80C G126U U144G
A39U G48A A60U U78A C132A A138C
A40C C57U U82G C95G A110U
A40C U53A A66G C85U G86U C103G C114G G143C
A40C A89C U90G U102A U139G G141A
A40C A47U C87A A89U C103A U130A G136U
A39U G83U A150C
A40C U56A G59U A107C G133A U148G
A40C U61A C76G U109G U130A
A39U G42C U53A C95U
A40C U44G U78G U90G
A40C G59A G94U G140U C149G
A40C C79A C96U U101G U127A
A40G A52C A91U A120U
A39U G94A A119U G140A
A39U C79U C93A
A39U C96G C99G A106G
A40G A47C U82C G86A G92A A121U C132U
A39U A52G U61A A73U A115U A150C
A40C G67C G71C A98G C103A C105G
A40C C79U U104A C125A G141A
A39U G50A C76U C96A U134A
A40C C87A C99G U127A
A39U U77A G81C C87U C95U A98C G126U G136C
A40C C85G C87U C93U U148C
A39U G50A A91U A106G G152A
A40C G50C U82C C85A U101A A106C A115U A142U
A40G A106C A138G
A40C C69A G86U C105G
A39U U102G
A40C C57U C75U G86A A119U U135A
A39U C51U C79A A91G
A39G U77C C99U
A39U C43U U61A U135G G136A
A39U G81A C103G A142C
A39U A60G C76G G80U A137C U151C
A40C A49U G50A U61A C85U A137U A142G U148A
A40C G48A A89U C95G U104C A106C
A40G A66C G88A
A39U A40G A73C G84U C125U G126C C149A
A40G A41G G59C G92C C116G C131G
A39U A52C G62A C87A U127G
A40C U78A G86A
A40C G58C U101C C116U C123G A138G C149G
A40C G42U C87G G117C
A39U C54U C87A C99A G133U
A40C G88C C118A A147G
A40C C85A U102G G143A
A40C C54G U77G C93U G143U U146C
A39U G42C U77C C85A
A40G A73U C87A U130G
A40C C75U U78A G80U A106G G124U U139G G140U
A39U C96A C99G
A39U C54U G67C C116G C123U
A40C U77C C116A C125U
A39U A40G A49U C57A G74C G92A C95U G100A A106C C125A

Polymerase ribozyme fitness (log ratio), -1.3:
A40C C96U A150G

Polymerase ribozyme fitness (log ratio), -1.04:
A40C A52C

Polymerase ribozyme fitness (log ratio), -1.56:
A39U G141U

Polymerase ribozyme fitness (log ratio), -4.11:
A39U A113C

Polymerase ribozyme fitness (log ratio), -3.73:
A40G A41U U53A C123A C125U U134G

Polymerase ribozyme fitness (log ratio), 0.316:
A40C G50U C85U

Polymerase ribozyme fitness (log ratio), -3.7:
A39U U53A G86U
A39U C99A

Polymerase ribozyme fitness (log ratio), -4.01:
A39U U102C

Polymerase ribozyme fitness (log ratio), -0.15:
A40C C51U G84A
